Laboratory results reported in PubChem BioAssay AID1508642 (National Center for Advancing Translational Sciences (NCATS), 2021).
Screen size: about 43,000 compounds; about 200 (0.47%) were called active. Another 12% or so got no clear call; they are omitted. Calls follow the shape of the dose curve; as a rule, active = well fitted cell-killing curve with a large enough effect; inconclusive = small, poorly fitted or top-dose-only effect, or effect the other way; inactive = flat fitted curve, though single readings scatter. This is one part of the list.

assay: Cell viability qHTS assay in S16 Pmp22-F2sN cells; settings: S16 Pmp22-F2sN Schwann cells (luciferase reporters placed in the Pmp22 gene) viability, CellTiter-Glo, 24 h; series mostly up to 57.5 µM; activity change, negative = cytotoxicity: at the top concentration; also: nearly all actives have a fitted effect of over 65% in size
Summary of the method: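 S16 Schwann cells carrying the Pmp22-F2sN reporter, seeded in 1536-well format, were exposed to library compounds for 24 h at 37C. Viability was read as CellTiter-Glo luminescence after 15 min at room temperature.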
% is scaled to controls: 0 for no effect and ±100 for the full control effect.

Row | Compound | activity change, negative = cytotoxicity
1 | CCCCn1cc(S(=O)(=O)c2ccc(C)c(C)c2)c(=O)c2cc(F)c(N3CCCC(C)C3)cc21 (stereo not given) | inactive: 14.4%
2 | CCS(=O)(=O)N1CCc2cc(C(=O)Nc3ccc(OC)c(Cl)c3)ccc21 | inactive: -20.2%
3 | CCOc1ccc2nc(N3CCCC(C(=O)Nc4c(C)cccc4C)C3)sc2c1 (stereo not given) | inactive: -4.21%
4 | CCOC(=O)c1sc2ncn(CC(=O)Nc3ccc(N(C)C)cc3)c(=O)c2c1C | inactive: 17.2%
5 | Cc1cc(C)cc(-n2ccnc2SCC(=O)Nc2nnc(C)s2)c1 | inactive: -10.2%
6 | O=C(Nc1nc2ccc(S(=O)(=O)N3CCCC3)cc2s1)c1cccc(F)c1 | inactive: -20.7%
7 | Cc1ccc(-c2nc(C)c(CCNC(=O)c3ccco3)s2)cc1 | inactive: 0.0584%
8 | CCc1ccc(CNC(=O)CN2C(=O)c3cccnc3Oc3ccc(Cl)cc32)cc1 | inactive: -2.7%
9 | O=C(CSc1nc2ccccc2nc1Cc1ccc(Cl)cc1)N1CCc2ccccc21 | inactive: -3.33%
10 | CCN(c1cccc(C)c1)S(=O)(=O)c1nnc(NC(=O)C2CCCCC2)s1 | inactive: 9.23%
11 | O=C(CSC1=Nc2ccccc2C2=NC(CC(=O)NC3CCCCC3)C(=O)N12)Nc1ccc(F)cc1 (stereo not given) | inactive: -8.73%
12 | CCOc1ccc(NC(=O)CSc2ncc3c(n2)-c2ccc(Cl)cc2N(Cc2ccccc2)S3(=O)=O)cc1 | inactive: 2.84%
13 | COc1ccc(-c2nc3sc(CCNC(=O)c4cc(OC)c(OC)c(OC)c4)c(C)n3n2)cc1 | inactive: 2.02%
14 | COC(=O)c1nc2n(n1)C(c1cccc(Cl)c1)C(C(=O)Nc1ccccc1OC)=C(C)N2 (stereo not given) | inactive: -4.45%
15 | Cc1cccc(C)c1NC(=O)C(NS(=O)(=O)c1ccc2c(c1)CCC(=O)N2)c1ccccc1 (stereo not given) | inactive: -1.3%
16 | Cc1c2cnn(-c3ccccc3)c(=O)c2c(C)n1CCCC(=O)Nc1cc(F)ccc1F | inactive: -11.1%
17 | CCOc1ccc(C2c3[nH]c4ccccc4c3CCN2C(=O)CCc2ccccc2)cc1 (stereo not given) | inactive: -2.86%
18 | COc1ccc(C)cc1NC(=O)c1oc2ccc(S(=O)(=O)N3CCCCC3)cc2c1C | inactive: -1.57%
19 | Cc1ccc(C)c(N2CCN(S(=O)(=O)c3cc(Br)cc4c3N(C(=O)C3CC3)CC4)CC2)c1 | inactive: -3.37%
20 | COc1ccc(-n2nc(C(=O)Nc3ccccc3OC)c3c4ccccc4n(C)c3c2=O)cc1Cl | inactive: 12.7%
21 | Cc1ccc(CSc2nc(-c3cccs3)ccc2C#N)cc1 | inactive: -0.142%
22 | COc1cccc(-c2nn(C)c3sc(C(=O)NCCc4ccc(Cl)cc4)cc23)c1 | inactive: -2.02%
23 | Cc1ccc(C(=O)n2nc(C)c(S(=O)(=O)N3CCOCC3)c2C)cc1 | inactive: -2.01%
24 | CCOc1ccc(NC(=O)NCCCN2CCN(c3ccc(F)cc3)CC2)cc1 | inactive: -6.16%

Row | Compound | activity change, negative = cytotoxicity
25 | Cc1cccc(N2CCN(c3cc(C)nc4c(-c5ccc(Cl)cc5)c(C)nn34)CC2C)c1 (stereo not given) | inactive: 10.6%
26 | FC(F)(F)c1cc(-c2ccccc2)nc2cc(-c3ccc(Br)cc3)nn12 | inactive: 7.19%
27 | COc1ccc(-c2cn3nc(N4CCCC(C(=O)Nc5ccc(C)c(C)c5)C4)sc3n2)cc1 (stereo not given) | inactive: 29.5%
28 | Cc1ccc(-n2nnnc2CNC(=O)c2ccccc2S(C)(=O)=O)cc1C | inactive: -1.16%
29 | CCCn1cc(S(=O)(=O)c2cc(C)ccc2C)c(=O)c2cc(F)c(N3CCOCC3)cc21 | inactive: -7.17%
30 | CCc1ccc2occ(CC(=O)Nc3c(C(=O)Nc4ccc(C)cc4)oc4ccccc34)c2c1 | inactive: 0.142%
31 | COC(=O)c1c(SCC(=O)Nc2cc(C)cc(C)c2)[nH]c2ccccc2c1=O | inactive: -11.5%
32 | O=C(CCC(=O)OCC(=O)c1ccc(Cl)cc1)Nc1ccc(Oc2ccccc2)cc1 | inactive: -0.735%
33 | COc1ccc(N2CCN(C(CNC(=O)C(=O)NCCCN(C)C)c3cccnc3)CC2)cc1 (stereo not given) | inactive: 3.49%
34 | CCC(=O)N1c2nc(-c3ccco3)nn2C2(CCCCC2)[C@@H]2CCCC[C@@H]21 | inactive: 2.87%
35 | Cc1ccc(CSc2nc3cccnc3n2Cc2ccc(C(=O)NCCc3ccccc3)cc2)cc1 | inactive: -2.54%
36 | CCS(=O)(=O)N1CCc2cc(C(=O)Nc3cccc(Cl)c3C)ccc21 | inactive: 0.482%
37 | Cc1nc2c(-c3ccccc3)c(C)nn2c(C)c1CCC(=O)NCc1ccccc1Cl | inactive: 8.72%
38 | O=C(Nc1cc2c(cc1C(=O)c1ccccc1Cl)OCCO2)c1ccc(Br)cc1 | inactive: -0.831%
39 | CCOC(=O)C1=C(CS(=O)(=O)c2ccc(C)cc2)NC(=O)NC1c1ccc(C(C)C)cc1 (stereo not given) | inactive: -27%
40 | CN(C(=O)c1ccc2c(c1)N(Cc1cccc(Cl)c1)C(=O)c1ccccc1S2=O)C1CCCCC1 (stereo not given) | inactive: -23%
41 | COc1ccc(NC(=O)CCS(=O)(=O)c2cccc3nonc23)cc1Cl | inactive: 7.31%
42 | Cc1ccc(CSCc2ccc(C(=O)NCCc3ccc(Cl)cc3)o2)cc1 | inactive: -16.6%
43 | Cc1cc(C)cc(N2C(=O)CSC23C(=O)N(CC(=O)NCCc2ccccc2)c2ccccc23)c1 (stereo not given) | inactive: 0.95%
44 | O=C(CSC1=Nc2ccccc2N=C(c2ccc(F)cc2)C1)NCc1ccc(F)cc1 | inactive: 16.4%
45 | Cc1ccc(C)c(CN2C(=O)CSc3ccc(C(=O)NCc4ccc(F)cc4)cc32)c1 | inactive: 1.07%
46 | COc1ccccc1NCc1cccn1-c1nnc(N2CCOCC2)s1 | inactive: -1.11%
47 | Cc1oc2ncn(C)c(=O)c2c1C(=O)NC(C)c1ccccc1 (stereo not given) | inactive: -9.14%
48 | Cc1nc(C)c(-c2ccc(SCC(=O)Nc3ccc(C)c(F)c3)nn2)s1 | inactive: -1.43%

Row | Compound | activity change, negative = cytotoxicity
49 | COc1ccc(CNC(=O)c2c(O)nc3cc(C)ccn3c2=O)cc1 | inactive: 2.79%
50 | CCc1ccc2ncc3c(-c4ccc(F)cc4)nn(CC(=O)NCc4ccccc4)c3c2c1 | inactive: 4.47%
51 | CC(C)CC(C(=O)NCc1ccc(F)cc1)N1Cc2ccccc2C1=O (stereo not given) | inactive: -0.604%
52 | Cc1ccc(C(C)C)c(OCC(=O)Nc2ccc(C(=O)OC3CCCCC3)cc2)c1 | inactive: 4.24%
53 | CCOc1ccc(-c2nc(SCC(=O)Nc3ccc(C)c(C)c3)n3[nH]c(=O)cc3n2)cc1 | inactive: -1.8%
54 | Cc1cccc(NC(=O)CSc2nc(-c3ccccc3)cn2-c2ccccc2)c1C | inactive: 2.5%
55 | Cc1ccc(C)c(-n2c(CCC(=O)O)ccc2-c2ccc(Cl)cc2)c1 | inactive: 2.17%
56 | COc1ccc(Nc2ncc(C(=O)N3CCN(c4cccc(Cl)c4)CC3)c3ccccc23)cc1 | inactive: -16%
57 | COc1cccc(CNC(=O)Cc2ccc(NC(=O)N3CCCCc4ccccc43)cc2)c1OC | inactive: -18.3%
58 | CCc1nnc(SCc2nc(-c3ccc(OC)c(OC)c3)oc2C)c2cc3sc(C)cc3n12 | inactive: 8.43%
59 | Cc1ccc(/C=C/c2onc(C)c2S(=O)(=O)N2CCC(C(=O)NCc3ccc(C)o3)CC2)cc1 | inactive: 7%
60 | Cc1ccc2c(=O)cc(C(=O)Nc3cccc(Cl)c3C)oc2c1C | inactive: -1.6%
61 | Cc1cc(Nc2cccc(C)c2C)n2cnnc2n1 | inactive: 12.4%
62 | Cc1ccc(C(=O)CC2(O)C(=O)N(CCc3ccccc3)c3ccc(Cl)cc32)cc1 (stereo not given) | inactive: 18.5%
63 | Cn1c(=O)c2c(-c3ccccc3Cl)n(-c3cc(Cl)ccc3O)cc2n(C)c1=O | inactive: -14.1%
64 | COc1ccc(OCCCCn2c(-c3ccc(Cl)cc3)nc3ccccc3c2=O)cc1 | inactive: 7.05%
65 | CCCCCOC(=O)CSc1ncnc2c1sc1nc(N3CCOCC3)c3c(c12)CCCC3 | inactive: -4.94%
66 | Cc1oc2ncn(CC(C)C)c(=O)c2c1C(=O)NCCCN1CCCCC1 | inactive: 10.9%
67 | COc1cccc(NC(=O)CSc2ncc(S(=O)(=O)c3ccc(C)c(C)c3)c(=O)[nH]2)c1 | inactive: 18.7%
68 | O=C(COc1ccc(F)cc1)Nc1ccc2nc(SCC(=O)N3CCc4ccccc43)sc2c1 | inactive: 12.5%
69 | Cc1cc(C)c(NC(=O)c2cc3sc(Cl)cc3n2C)c(C)c1 | inactive: -0.729%
70 | COc1ccccc1CNC(=O)c1ccc(N2CCCC2)c(NC(=O)NCCC(C)C)c1 | inactive: 6.06%
71 | Cc1ccc(C)c(CN2C(=O)c3ccccc3S(=O)(=O)c3ccc(C(=O)N4CCCCCC4)cc32)c1 | inactive: -8.06%
72 | O=C(NCC(c1ccco1)S(=O)(=O)c1cccs1)c1ccc(F)cc1 (stereo not given) | inactive: 6.28%

Row | Compound | activity change, negative = cytotoxicity
73 | CCOC(=O)c1ccc2oc(=O)n(Cc3ccccc3)c2c1 | inactive: -2.29%
74 | CCc1c(-c2ccccc2)nc2ccccc2c1C(=O)NCCc1ccccc1 | inactive: 18.1%
75 | Cc1csc2nc(COc3ccccc3NC(=O)c3ccco3)cc(=O)n12 | inactive: 4.8%
76 | CSc1cccc(NC(=O)Cn2c3ncccc3c(=O)n2-c2ccc(C)cc2)c1 | inactive: -8.71%
77 | CC(=O)c1ccc(N2CCN(S(=O)(=O)c3ccc(-c4cc(C(F)(F)F)on4)s3)CC2)cc1 | inactive: -0.227%
78 | COc1ccc(NC(=O)c2oc3ccccc3c2NC(=O)c2cc3ccccc3o2)cc1 | inactive: -3.61%
79 | Cc1ccccc1S(=O)(=O)Cc1ccc(C(=O)NC2CCCCC2)o1 | inactive: 9.51%
80 | CCOc1ccc(NS(=O)(=O)c2ccc3[nH]cc(C(=O)N(C)Cc4ccccc4)c(=O)c3c2)cc1 | inactive: 4.85%
81 | COc1ccc2c(c1)CC(NC(=O)Nc1c(C)cc(C)cc1C)CO2 (stereo not given) | inactive: 20%
82 | CC(=O)N1CCc2c(sc3c2c(=O)n(-c2ccccc2)c(=O)n3CC(=O)Nc2ccccc2C)C1 | inactive: -0.414%
83 | COc1ccc(C)cc1S(=O)(=O)N1CCN(c2cccc(Cl)c2)CC1 | inactive: 0.111%
84 | Cc1cccc(-n2c3nc(=O)[nH]c(=O)c-3cc3c(Cl)cccc32)c1C | inactive: -9.5%
85 | CCOc1cccc2cc(-c3nc4ccc(C(=O)O)cc4[nH]3)c(=O)oc12 | inactive: 5.98%
86 | CCOc1ccc(NC(=O)CSc2nnc3scc(-c4ccc(Cl)cc4)n23)cc1 | inactive: -2.27%
87 | Cc1ccc(NS(=O)(=O)c2ccc3c(c2)NC(=O)CCS3)cc1C | inactive: -6.69%
88 | Cc1ccccc1-n1c(/C=C/c2c(C)n(C)c3ccccc23)nc2ccccc2c1=O | inactive: 0.741%
89 | CC(C)(C)OC(=O)N1CCC(c2c(C(=O)N3CCN(c4ncccn4)CC3)cnn2-c2ccccc2)CC1 | inactive: -3.34%
90 | CCOC(=O)CNC(=O)N1CCc2cc(S(=O)(=O)N3CCC(C)CC3)ccc21 | inactive: 25.9%
91 | CCOC(=O)c1ccc(N2C(=O)c3n[nH]c(C)c3C2c2ccc(C(C)(C)C)cc2)cc1 (stereo not given) | inactive: 5.1%
92 | CNC(=O)C1CCC(Cn2c(=O)[nH]c3ccsc3c2=O)CC1 (stereo not given) | inactive: -1.27%
93 | CCOC(=O)c1ccc(NC(=O)COCc2cc(-c3ccc4c(c3)OCO4)on2)cc1 | inactive: 14.5%
94 | CCOC(=O)c1cccc(NC(=O)c2cc(CN3CCOCC3)on2)c1 | inactive: 3.27%
95 | CSc1ccc(CNc2ncc(-c3ccccc3)n2C)cc1 | inactive: -0.132%
